Values joined by “and” are separate entries in the source; they are usually repeats but may differ in a detail not shown here. Identical values can stand only once. The campaign covered roughly 390,000 compounds. About 4,000 (1%) were called active. Inconclusive means that the source gave no clear call. Such entries were picked first, then a sample of the others. Calls come from the whole dose curve; as a rule, active = well fitted inhibition curve with a large enough effect; inconclusive = small, poorly fitted or top-dose-only effect; inactive = no such curve, though single readings can be large or run the other way. Potencies beside an inconclusive call are fits to weak or partial responses and may not hold up.
Target: Thioredoxin reductase 1, cytoplasmic (Rattus norvegicus) (UniProt O89049)
UniProt O89049, sequence (O89049 whole entry, looked up): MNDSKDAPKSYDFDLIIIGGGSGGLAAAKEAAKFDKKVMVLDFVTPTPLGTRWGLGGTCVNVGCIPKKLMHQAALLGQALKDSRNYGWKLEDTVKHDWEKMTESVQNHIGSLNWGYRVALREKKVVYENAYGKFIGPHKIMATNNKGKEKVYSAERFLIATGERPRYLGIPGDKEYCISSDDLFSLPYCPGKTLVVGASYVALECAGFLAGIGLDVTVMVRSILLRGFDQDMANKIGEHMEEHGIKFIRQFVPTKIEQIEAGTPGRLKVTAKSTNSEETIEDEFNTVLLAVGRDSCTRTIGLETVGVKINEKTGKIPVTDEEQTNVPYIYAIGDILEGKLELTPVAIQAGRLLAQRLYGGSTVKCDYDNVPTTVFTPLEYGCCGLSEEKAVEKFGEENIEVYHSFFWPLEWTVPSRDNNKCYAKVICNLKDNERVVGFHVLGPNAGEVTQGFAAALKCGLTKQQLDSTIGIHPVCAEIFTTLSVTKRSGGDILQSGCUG
Assay: qHTS Assay for Inhibitors of Mammalian Selenoprotein Thioredoxin Reductase 1 (TrxR1): qHTS; note: nearly all actives have a fitted effect of over 65% in size
Details: recombinant rTrxR1, NADPH fluorescence consumption, selenite substrate; series mostly up to 114 µM; activity change, negative = inhibition: at the top concentration
In short: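 Rat TrxR1 (90 nM in the dispensed reagent) was pre-reduced with 400 uM NADPH for 5 min at room temperature, then incubated with compound for 15 min. After 400 uM selenite was added, NADPH fluorescence (Ex 340/Em 450 nm) was followed for 8 min.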
% is set by controls: 0 for no effect and ±100 for the full control effect; potency is the fitted concentration of half-maximal effect; tags give direction and shape of the fitted curve.

Structure (SMILES) | activity change, negative = inhibition | Potency
Cc1ccccc1CN1[C@H]2CCCC[C@@H]2OCCS1(=O)=O | inactive: 17.9% | –
Cc1ccc[n+](CC(=O)Nc2ccc([N+](=O)[O-])cc2)c1 | – | inconclusive: 50.1 µM [inhibitor, partial curve, poor fit]
N#Cc1ccccc1S(=O)(=O)N1CCN(Cc2c(O)ccc3ccccc23)CC1 | – | inconclusive: 3.16 µM [inhibitor, full curve]
CC(=O)N/C(=C\c1ccc(C)o1)C(=O)NCc1ccccc1 | – | inconclusive: 31.6 µM [inhibitor, partial curve, poor fit]
O=C(CSc1cc([N+](=O)[O-])cc(S(=O)(=O)Cc2ccccc2)c1)NC1CC1 | – | inconclusive: 11.2 µM [inhibitor, partial curve, poor fit]
Cc1ccc(C)c(NC(=O)Cc2nc(CNCC(C)C)cs2)c1 | – | inconclusive: 14.1 µM [inhibitor, full curve]
O=C(NCCN1CCOCC1)c1cc(-c2cccs2)on1 | – | inconclusive: 15.8 µM [inhibitor, full curve]
Cc1[nH]n(-c2ccc(Br)cc2)c(=O)c1C=Nc1ccc(S(=O)(=O)Nc2nccs2)cc1 | – | inconclusive: 89.1 µM [inhibitor, single point]
C/C(CC(=O)Nc1ccc2c(c1)OCO2)=N\NC(=O)C(c1ccccc1)c1ccccc1 | – | inconclusive: 70.8 µM [inhibitor, single point]
O=C(c1ccco1)N1CCN(C(c2cccs2)c2nnnn2C2CCCCC2)CC1 (stereo unspecified) | – | inconclusive: 28.2 µM [inhibitor, partial curve]
CCS(=O)(=O)c1ncc(Cl)c(C(=O)NCc2ccccc2)n1 | – | active: 5.62 µM
O=C(NN1C(=O)C2C3C=CC(O3)C2C1=O)c1cccc(O)c1 (stereo unspecified) | – | inconclusive: 56.2 µM [inhibitor, partial curve, poor fit]
COCCn1c(Cc2ccccc2)nnc1SCC(=O)Nc1oc(C)c2c(C)n[nH]c(=O)c12 | – | inconclusive: 70.8 µM [inhibitor, single point]
Cc1cccc(C)c1NC(=O)Cn1nnnc1N | – | inconclusive: 3.16 µM [inhibitor, single point]
Cc1ccc(C(=O)NCc2ccccc2)cc1NC(=O)c1nsc2ccccc12 | inactive: 30.6% [at 57.1 µM] | –
CCOc1ccc2cc(C3CC(c4ccco4)=NN3S(C)(=O)=O)c(=O)[nH]c2c1 (stereo unspecified) | – | inconclusive: 20 µM [inhibitor, single point]
CCn1c2ccccc2c2cc(NC(=O)C/C(C)=N/NC(=O)c3ccccc3N)ccc21 | – | inconclusive: 56.2 µM [inhibitor, partial curve]
O=S(=O)(c1cnc(Cl)c(Cl)c1)N1CCc2ccccc21 | inactive: -20.6% | –
CCCCCCCCNC(=O)CC(NS(=O)(=O)c1ccc(NC(C)=O)cc1)C(C)C (stereo unspecified) | – | inconclusive: 22.4 µM [inhibitor, partial curve, poor fit]
O=C1N=c2ccc(Br)cc2=C1c1sc(=S)n(NS(=O)(=O)c2ccccc2)c1O | – | inconclusive: 79.4 µM [inhibitor, single point]
O=C(Nc1nncs1)c1cc(-c2ccco2)nc2ccccc12 | inactive: -53.4% | –
O=S(=O)(c1cccc2c(Cl)cccc12)N1CCCNCC1 | – | inconclusive: 2.38 µM [inhibitor, full curve] and inconclusive: 5.97 µM [inhibitor, full curve]

Structure (SMILES) | activity change, negative = inhibition | Potency
CC(=O)Nc1ccc(S(=O)(=O)NC2=C(N3CCN(Cc4ccccc4)CC3)C(=O)c3ccccc3C2=O)cc1 | – | inactive
Cc1ccc(-n2nc(-c3ccco3)cc2C(=O)NCc2cccnc2)cc1 | – | inconclusive: 22.4 µM [inhibitor, partial curve, poor fit]
C=CCOC(=O)c1cc(-c2ccc(/C=C3\C(=O)NC(=O)C(C#N)=C3C)o2)ccc1Cl | – | inconclusive: 12.6 µM [inhibitor, partial curve, poor fit]
COc1ccccc1-c1ccc(/C=C2/C=C(C)OC2=O)o1 | – | inconclusive: 79.4 µM [inhibitor, partial curve]
CC(=O)c1cccc(N(C(=O)CS(=O)CC(=O)Nc2ccc(F)cc2)C(C(=O)NC2CCCCC2)c2ccc(C)o2)c1 (stereo unspecified) | – | inconclusive: 39.8 µM [inhibitor, partial curve]
COc1ccc(-n2c(SCC(=O)NCc3ccco3)nc3sc4c(c3c2=O)CCN(C)C4)cc1 | – | inconclusive: 89.1 µM [inhibitor, single point]
COc1ccc(C2N(c3ccc4c(c3)OCCO4)C(=O)C2(F)F)cc1OC (stereo unspecified) | – | inconclusive: 89.1 µM [inhibitor, single point]
O=C(c1ccc2c3c(cccc13)CC2)C1CCCN(Cc2ccncc2)C1 (stereo unspecified) | – | inconclusive: 89.1 µM [inhibitor, single point]
CCCCn1c(=N)n(CCCOc2ccc(F)cc2)c2ccccc21 | inactive: 42.1% | –
Cc1ccccc1OCCc1c(C)[nH]c(=S)[nH]c1=O | – | inconclusive: 15.8 µM [inhibitor, partial curve, poor fit]
COC(=O)c1c(C)oc2ccc(N(C(=O)c3ccncc3)S(=O)(=O)c3ccc(OC)cc3)cc12 | inactive: -1.95% | –
CC(C)n1c(O)c(N=NC(=O)CNC(=O)c2cccnc2)c2ccccc21 | – | inconclusive: 79.4 µM [inhibitor, partial curve, poor fit]
CC1=NOC(=O)/C1=C\c1ccc(-c2ccc(Br)cc2C(=O)O)o1 | inactive: -7.16% [at 57.1 µM] | –
COc1ccc(/C=C/C(=O)NC(=S)N2CCSCC2)cc1 | inactive: -1.71% [at 57.1 µM] | –
COC(=O)NCC(c1cccnc1)N1CCN(c2ccccc2F)CC1 (stereo unspecified) | – | inconclusive: 39.8 µM [inhibitor, partial curve, poor fit]
COC(=O)CNC(c1ccccc1Cl)c1cc(Br)ccc1NC(=O)CCN1CCOCC1 (stereo unspecified) | – | inconclusive: 22.4 µM [inhibitor, single point]
CC(=C/C(=O)O)/C=C/c1ccc(Cl)o1 | – | inconclusive: 25.1 µM [inhibitor, partial curve]
C=CCn1c2ccccc2n2nc(C)c(=O)nc12 | inactive: -16% | –
Oc1c(C(c2ccccn2)N2CCOCC2)ccc2cccnc12 (stereo unspecified) | – | inconclusive: 31.6 µM [inhibitor, single point]
O=C(c1nc2nc(-c3cccs3)cc(C(F)(F)F)n2n1)N1CCN(Cc2ccccc2)CC1 | – | inconclusive: 100 µM [inhibitor, single point]
Cc1cc(-c2nnc(CCC(=O)N(C)Cc3ccsc3)o2)no1 | inactive: 2.97% | –
O=C(C1=C(O)C(=O)N(CCN2CCOCC2)C1c1ccccc1)c1cccs1 (stereo unspecified) | – | inconclusive: 15.8 µM [inhibitor, full curve]

Structure (SMILES) | activity change, negative = inhibition | Potency
O=C(CCN1CCN(c2ccccc2F)CC1)c1ccc(Br)cc1 | – | active: 0.282 µM
CCCOc1ccc(C2C(C(=O)/C=C/c3ccco3)=C(O)C(=O)N2CCN2CCOCC2)cc1OC (stereo unspecified) | – | inconclusive: 22.4 µM [inhibitor, partial curve]
N#Cc1cccc2c1-c1ccccc1/C2=N/NC(N)=S | – | inconclusive: 7.08 µM [inhibitor, partial curve, poor fit]
CCOc1ccc(N2C(=O)CC(NCCc3ccc(S(N)(=O)=O)cc3)C2=O)cc1 (stereo unspecified) | – | inconclusive: 70.8 µM [inhibitor, partial curve, poor fit]
O=C(CBr)Nc1c2c(nn1-c1ccccc1)CSC2 | – | inconclusive: 79.4 µM [inhibitor, single point]
CNc1nc(N)c(C(=O)C(C)(C)C)s1 | – | inconclusive: 35.5 µM [inhibitor, single point]
CC/C=C\C/C=C\C/C=C\CCCCCCCC(=O)O | – | inconclusive: 79.4 µM [inhibitor, single point]
NS(=O)(=O)c1cccc(NC(=O)CCSc2ccc(Cl)cc2)c1 | – | inconclusive: 50.1 µM [inhibitor, partial curve, poor fit]
C=C[C@@]1(C)CCC(/C(C)=C/C=C/C(C)(C)O)C[C@@H]1C(=C)C (stereo partly specified) | – | inconclusive: 89.1 µM [inhibitor, partial curve, poor fit]
Cn1c(CN2CCCC2)nc2cc(NC(=O)COc3ccc([N+](=O)[O-])cc3)ccc21 | inactive: -12% | –
Oc1ccc(Cl)cc1-c1cc(-c2ccco2)[nH]n1 | inactive: -3.57% [at 57.1 µM] | –
CC1=C(c2ccc(F)cc2)S(=O)(=O)N=C1N1CCC(C(=O)NCCc2cccc(C)c2)CC1 | inactive: 12.5% [at 57.1 µM] | –
Cc1c(C(=O)NCc2cccc(Cl)c2)sc2nc3n(c(=O)c12)CCCC3 | – | inconclusive: 70.8 µM [inhibitor, single point]
CCOC(=O)c1cc(=O)n2nc(-c3ccccc3F)nc2s1 | – | active: 11.2 µM
Cc1ccc2c(c1)c(C)c(C)n2CC(O)Cn1nc(C)c(Br)c1C (stereo unspecified) | inactive: -2.09% | –
Cc1cc(O)c(C=Nc2cccc(Cl)c2)c(=O)o1 | – | inconclusive: 89.1 µM [inhibitor, single point]
O=[N+]([O-])c1ccc(S(=O)(=O)Nc2nnc(C(F)(F)F)s2)cc1 | – | active: 6.31 µM
O=[N+]([O-])c1ccc2c(c1)N([O-])C1(CCCCC1)[N+]2=O | – | inconclusive: 22.4 µM [inhibitor, single point]
Cc1cc2c(cc1C)N(C(=O)CCl)CCN2C(=O)CCl | – | active: 1.12 µM
O=C1CN(C(=O)COC(=O)C2CC(=O)N(Cc3ccco3)C2)c2ccccc2N1 (stereo unspecified) | – | inconclusive: 22.4 µM [inhibitor, partial curve, poor fit]
C=CC1(C)CN(Cc2ccco2)S(=O)(=O)c2c(F)cccc2O1 (stereo unspecified) | – | inconclusive: 22.4 µM [inhibitor, partial curve, poor fit]
CCCNS(=O)(=O)c1ccc(OCC(=O)NCc2ccco2)cc1 | – | inconclusive: 31.6 µM [inhibitor, single point]

Reference: PubChem BioAssay AID588453 (National Center for Advancing Translational Sciences (NCATS), 2011)
